Reference: the supplement of paper PMC4604168 (melanoma cell lines)
Some of the results follow. Most values come without repeats; read them as rough.

Legend:
Assay in all cases: cell count relative to DMSO control; melanoma cells; higher = more viable cells
Details in all cases: library dose: low library concentration; 72 h
[1] = test system: MZ2-MEL
[2] = test system: MeWo
[3] = test system: RPMI7951
[4] = test system: RVH-421
[5] = test system: SkMel28
[6] = test system: SkMel2
[7] = test system: SkMel30
[8] = test system: SkMel5
[9] = test system: UACC257
[10] = test system: UACC62
[11] = test system: WM115
[12] = test system: WM1716
[13] = test system: WM1745
[14] = test system: WM3526
[15] = test system: WM3619
[16] = test system: WM451Lu
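Further: cell number obtained by counting DAPI-stained nuclei in high-throughput microscope images with image analysis software, screen run in 1,536-well plates.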

Row | SMILES | cell count [1] | cell count [2] | cell count [3] | cell count [4] | cell count [5] | cell count [6] | cell count [7] | cell count [8] | cell count [9] | cell count [10] | cell count [11] | cell count [12] | cell count [13] | cell count [14] | cell count [15] | cell count [16]
1 | CCCCCCCCc1ccc(CCC(N)(CO)CO)cc1 [fingolimod] + NC(=O)Nc1cc(-c2cccc(F)c2)sc1C(=O)N[C@H]1CCCNC1 [AZD7762] (first compound 2 µM, partner dose 0.02 µM) | 106% | 112% | 78.4% | 82.9% | 82.6% | 99.7% | 79.9% | 99.4% | 103% | 95.8% | 74.1% | 70.9% | 65.6% | 72.9% | 38.4% | 133%
2 | NC(=O)c1ccc(N(C(N)=O)c2c(F)cccc2F)nc1-c1ccc(F)cc1F + Nc1ccn([C@@H]2O[C@H](CO)[C@@H](O)C2(F)F)c(=O)n1 [gemcitabine] (first compound 0.4 µM, partner dose 0.0004 µM) | 86.2% | 106% | 85.7% | 72.3% | 96.2% | 102% | 98.9% | – | – | 85.3% | 104% | 102% | 60.4% | 87.8% | 71.4% | 111%
3 | Cc1ccc(NC(=O)c2cccc(N(C)C)c2)cc1NC(=O)c1ccc(O)cc1 + CN(NC(=O)CC(=O)NN(C)C(=S)c1ccccc1)C(=S)c1ccccc1 [STA4783] (first compound 2 µM, partner dose 0.006 µM) | 75.8% | 100% | 95.9% | 88.1% | 91% | 96.2% | 85.7% | 109% | 81.1% | 80.3% | 73% | 57.3% | 41.4% | 84% | 58.1% | 97.1%
4 | NC(=O)c1ccc(N(C(N)=O)c2c(F)cccc2F)nc1-c1ccc(F)cc1F + C#Cc1cccc(Nc2ncnc3cc(OCCOC)c(OCCOC)cc23)c1 [erlotinib] (first compound 0.4 µM, partner dose 0.8 µM) | 89.7% | 87.3% | 79% | 84.5% | 81.9% | 87.7% | 82.8% | – | – | 73.6% | 88.5% | 84.3% | 68.8% | 96.3% | 109% | 68.8%
5 | NC(=O)c1ccc(N(C(N)=O)c2c(F)cccc2F)nc1-c1ccc(F)cc1F + COc1ccc2c(c1)CCC1C2CCC2(C)C(NCCCCCCN3C(=O)C=CC3=O)CCC12 [U73122] (first compound 0.4 µM, partner dose 0.4 µM) | 95.7% | 86.2% | 74.7% | 87.8% | 83.5% | 90.8% | 94.4% | 106% | 88.6% | 79% | 91.4% | 76.7% | 74.5% | 102% | 88.4% | 97.4%
6 | CCCCCCCCc1ccc(CCC(N)(CO)CO)cc1 [fingolimod] + c1cc(-c2cnn3cc(-c4ccc(OCCN5CCCCC5)cc4)cnc23)ccn1 [Dorsomorphin] (first compound 2 µM, partner dose 0.4 µM) | 103% | 84.7% | 84.6% | 84.7% | 95.1% | 87.2% | 91% | 88.5% | 84.1% | 79.9% | 100% | 88.9% | 85.8% | 95.4% | 95.5% | 93.8%
7 | NC(=O)c1ccc(N(C(N)=O)c2c(F)cccc2F)nc1-c1ccc(F)cc1F + CN(NC(=O)CC(=O)NN(C)C(=S)c1ccccc1)C(=S)c1ccccc1 [STA4783] (first compound 0.4 µM, partner dose 0.006 µM) | 108% | 79.8% | 104% | 87.6% | 96% | 106% | 98.9% | 89.6% | 88.5% | 87.5% | 89.5% | 95.4% | 36.1% | 95.5% | 69.8% | 102%
8 | NC(=O)c1ccc(N(C(N)=O)c2c(F)cccc2F)nc1-c1ccc(F)cc1F + C=C(c1ccc(C(=O)O)cc1)c1cc2c(cc1C)C(C)(C)CCC2(C)C [Bexarotene] (first compound 0.4 µM, partner dose 2 µM) | 95.5% | 88.9% | 86.4% | 92.1% | 70.2% | 88.7% | 92.6% | – | – | 95% | 94% | 98.7% | 94.6% | 81.2% | 84.7% | 90%
9 | NC(=O)c1ccc(N(C(N)=O)c2c(F)cccc2F)nc1-c1ccc(F)cc1F + C=CCNC1=C2C[C@@H](C)C[C@H](OC)[C@H](O)[C@@H](C)/C=C(\C)[C@H](OC(N)=O)[C@@H](OC)/C=C\C=C(/C)C(=O)NC(=CC1=O)C2=O [Tanespimycin] (first compound 0.4 µM, partner dose 0.002 µM) | 106% | 95.6% | 92.8% | 85.3% | 84.8% | 92.5% | 85.1% | – | – | 92.3% | 90.5% | 88.3% | 87.2% | 94.3% | 117% | 93.8%
10 | NC(=O)c1ccc(N(C(N)=O)c2c(F)cccc2F)nc1-c1ccc(F)cc1F + Cn1c(=O)n(-c2ccc(C(C)(C)C#N)cc2)c2c3cc(-c4cnc5ccccc5c4)ccc3ncc21 [NVP-BEZ235] (first compound 0.4 µM, partner dose 0.004 µM) | 99.1% | 99.6% | 97.8% | 88.3% | 83.2% | 95.5% | 68.4% | – | – | 90% | 103% | 89.4% | 102% | 89.7% | 88.6% | 113%
11 | CCCCCCCCc1ccc(CCC(N)(CO)CO)cc1 [fingolimod] + C=CCNC1=C2C[C@@H](C)C[C@H](OC)[C@H](O)[C@@H](C)/C=C(\C)[C@H](OC(N)=O)[C@@H](OC)/C=C\C=C(/C)C(=O)NC(=CC1=O)C2=O [Tanespimycin] (first compound 2 µM, partner dose 0.002 µM) | 100% | 84.2% | 78.4% | 78.5% | 93% | 90.7% | 66.5% | – | – | 88.3% | 98.2% | 54.8% | 64.4% | 79.4% | 67.7% | 74.1%
12 | NC(=O)c1ccc(N(C(N)=O)c2c(F)cccc2F)nc1-c1ccc(F)cc1F + Clc1ccc(Nc2nnc(Cc3ccncc3)c3ccccc23)cc1 [vatalanib] (first compound 0.4 µM, partner dose 2 µM) | 99.7% | 63.6% | 92.3% | 95.1% | 110% | 103% | 88.9% | – | – | 84.7% | 110% | 110% | 109% | 92% | 78.2% | 110%
13 | CCCCCCCCc1ccc(CCC(N)(CO)CO)cc1 [fingolimod] + CC1(C)NC(=O)N(c2ccc([N+](=O)[O-])c(C(F)(F)F)c2)C1=O [nilutamide] (first compound 2 µM, partner dose 1 µM) | 95.4% | 92.1% | 88.2% | 115% | 98% | 104% | 87.9% | 94.6% | 75.2% | 78.7% | 112% | 99.4% | 75.2% | 88% | 86.8% | 85.7%
14 | CC(C)(C)c1cnc(CSc2cnc(NC(=O)C3CCNCC3)s2)o1 + O=C(O)c1ccc(-c2c[nH]c3ncc(-c4ccccc4)cc23)cc1C1CCCC1 [GSK650394] (first compound 0.01 µM, partner dose 0.16 µM) | 91.9% | 88.3% | 103% | 81.1% | 80.5% | 93% | 94.8% | 106% | 95.8% | 82.8% | 91.2% | 103% | 109% | 93.5% | 134% | 116%
15 | CCCCCCCCc1ccc(CCC(N)(CO)CO)cc1 [fingolimod] + Nc1cccc2c1CN(C1CCC(=O)NC1=O)C2=O [lenalidomide] (first compound 2 µM, partner dose 1 µM) | 90.5% | 90.8% | 92.6% | 91.6% | 87.8% | 92.6% | 99.5% | – | – | 103% | 88.2% | 77% | 83.2% | 93.5% | 74% | 103%
16 | NC(=O)c1ccc(N(C(N)=O)c2c(F)cccc2F)nc1-c1ccc(F)cc1F + CN(c1ncccc1CNc1nc(Nc2ccc3c(c2)CC(=O)N3)ncc1C(F)(F)F)S(C)(=O)=O [PF562271] (first compound 0.4 µM, partner dose 0.08 µM) | 89.3% | 94.6% | 70.8% | 85.4% | 66.2% | 88.5% | 86.5% | – | – | 99.2% | 78.4% | 82.8% | 84.9% | 85.9% | 89.1% | 84.8%
17 | NC(=O)c1ccc(N(C(N)=O)c2c(F)cccc2F)nc1-c1ccc(F)cc1F + COc1ccc(COc2ccc(Cc3cnc(N)nc3N)cc2OC)cc1 [GW2580] (first compound 0.4 µM, partner dose 1 µM) | 99.8% | 74.6% | 103% | 85.3% | 83.8% | 106% | 91.4% | 93.2% | 64.2% | 80.7% | 82.6% | 85.1% | 92.1% | 86.6% | 111% | 99.5%
18 | CCCCCCCCc1ccc(CCC(N)(CO)CO)cc1 [fingolimod] + Cc1cc(Nc2cc(N3CCN(C)CC3)nc(/C=C/c3ccccc3)n2)n[nH]1 [ENMD2076] (first compound 2 µM, partner dose 0.04 µM) | 89.6% | 84.3% | 95.3% | 93.6% | 97.3% | 110% | 113% | – | – | 92.1% | 92.1% | 100% | 73.8% | 111% | 83.2% | 104%
19 | CCCCCCCCc1ccc(CCC(N)(CO)CO)cc1 [fingolimod] + CS(=O)(=O)CCNCc1ccc(-c2ccc3ncnc(Nc4ccc(OCc5cccc(F)c5)c(Cl)c4)c3c2)o1 [lapatinib] (first compound 2 µM, partner dose 0.8 µM) | 98.6% | 92.7% | 66.5% | 93.9% | 81% | 100% | 89.6% | – | – | 99.5% | 98% | 99% | 83.5% | 87.6% | 100% | 93.2%
20 | CC(C)(C)c1cnc(CSc2cnc(NC(=O)C3CCNCC3)s2)o1 + COc1ccc(COc2ccc(Cc3cnc(N)nc3N)cc2OC)cc1 [GW2580] (first compound 0.01 µM, partner dose 1 µM) | 99% | 97.8% | 82.6% | 104% | 63.7% | – | 108% | 103% | 96% | 88.7% | 103% | 85% | 84.2% | 122% | 100% | 102%
21 | CCCCCCCCc1ccc(CCC(N)(CO)CO)cc1 [fingolimod] + Nc1ncn([C@H]2C[C@H](O)[C@@H](CO)O2)c(=O)n1 [decitabine] (first compound 2 µM, partner dose 0.1 µM) | 85% | 88.9% | 55.2% | 81.4% | 71.6% | 88.8% | 105% | – | – | 77.7% | 82.1% | 60.4% | 78.4% | 74.4% | 80.2% | 80.5%
22 | COc1cc2c(Oc3ccc4[nH]c(C)cc4c3F)ncnc2cc1OCCCN1CCCC1 [cediranib] + CCN(CC)CCCCNc1ncc2cc(-c3cc(OC)cc(OC)c3)c(NC(=O)NC(C)(C)C)nc2n1 [PD173074] (first compound 0.4 µM, partner dose 0.1 µM) | 103% | 103% | 90% | 98.4% | 91.4% | – | 111% | 107% | 117% | 95.6% | 102% | 99.8% | 92.6% | 106% | 100% | 98.9%
